# Laboratory results taken from PubChem BioAssay (NCATS).
# The shares of active, inactive and inconclusive entries below differ from those in the screen. Potencies beside an inconclusive call are fits to weak or partial responses and may not hold up. Activity calls are given as the source filed them. The call rests on the fitted dose curve; in most records, active means well fitted inhibition curve with a large enough effect; inconclusive means small, poorly fitted or top-dose-only effect; inactive means no such curve, though single readings can be large or run the other way.
# Test: BET inhibitor-based combinations targeting novel dependencies in MECOM-rearranged (r) AML: UCSD-AML1 cell line (AID 2202235); further: nearly all actives have a fitted effect of over 40% in size
# Details: UCSD-AML1 AML cells viability, CellTiter-Glo, 48 h; series mostly up to 46 µM
# Text: Ecotropic viral insertion site 1 (EVI1) is located on chromosome 3q26.2 as part of the MECOM (MDS and EVI1 complex) locus. Under normal hematopoiesis, EVI1 is a regulator of hematopoietic stem cell maintenance and self-renewal and EVI1 levels decrease as the cells differentiate. In approximately 5-10% of de novo acute myeloid leukemia (AML) EVI1 is aberrantly expressed, including Chromosomal inv(3)(q21;q26.2) or t(3;3)(q21;q26.2) alterations (MECOM-r) that account for about 50% of AML with EVI1 overexpression 31. AMLs with high levels of EVI1 have a poor prognosis and an overall survival time averaging between 10-14 months. EVI1 overexpression confers resistance in leukemia cells, highlighting the need to develop new targeted therapies for EVI1 overexpressing AMLs. Here, we performed an unbiased chemical drug screening by evaluating the single agent activity of a collection of 2,480 oncology-focused, approved and investigational drugs (NCATS Mechanism Interrogation Plates, MIPE v5.0) against a panel of seven AML cell lines. These included four MECOM-r cell-lines (AML-191, AML-194, UCSD-AML1 and HNT-34) and three non-MECOM-r AMLs (MV4-11, OCI-AML3 and SET-2). Exploiting the mechanistic redundancy built in the library, we identified target-level sensitivities in MECOM-r AML cells and relative activity as compared to other AML subtypes.
# A collection of 2480 mechanistically annotated dugs (MIPE v5.0) was used to screen four 3q26.2 rearranged AML cell lines and three non-3q26.2 rearranged AML cell lines. This library purposely exploits redundancy by including multiple inhibitors of key onco-targets, while simultaneously encompassing mechanistic diversity, targeting more than 800 distinct mechanisms of action. Briefly, cells were seeded in 5 uL of growth media using a Multidrop Combi dispenser into 1536 well white polystyrene tissue culture treated plates (Corning) at a density of 500cells/well. For each cell-line, for each of the 2480 drugs in MIPE v5.0 library, an 11-point dose curve was generated via a 1536 pin-tool. Plates were incubated for 48 hr at standard incubator conditions, covered by a stainless steel gasketed lid to prevent evaporation. Cell viability was determined by luminescence based, Cell Titer Glo assay (Promega). In detail, 3 uL of Cell Titer Glo were added to each well and plates were incubated at room temperature for 15 min with a stainless-steel lid in place. Luminescence readings were taken using a Viewlux (PerkinElmer) with a 2 s exposure time per plate. Compound dose-response curves were normalized to DMSO and empty well controls on each plate. Quantitative drug activity data from dose-response curves was determined utilizing area Under the Curve (AUC) and Z-transformed AUC (Z-AUC, a mean-centering transformation applied to each individual cell-line screened).
# Potency means the concentration at half of the fitted maximal effect; tags describe the fitted curve by direction and shape.
row,Molecule,Potency
1,CCN(CC)CCOc1ccc(/C(=C(\Cl)c2ccccc2)c2ccccc2)cc1,"inconclusive: 16.6 µM [inhibitor, partial curve, poor fit]"
2,CNc1nccc(-c2cccnc2Oc2cc(C(=O)Nc3cccc(C(F)(F)F)c3)ccc2C)n1,active: 6.61 µM
3,CC(=O)[C@]1(O)Cc2c(O)c3c(c(O)c2[C@@H](O[C@H]2C[C@H](N)[C@H](O)[C@H](C)O2)C1)C(=O)c1ccccc1C3=O,active: 0.148 µM
4,CN1CCN(C(=O)c2ccc(-c3ccc4c(C=O)c(O)ccc4c3)s2)CC1,"inconclusive: 9.34 µM [inhibitor, full curve, poor fit]"
5,Cc1cnc(NC(=O)Nc2cc(Br)c(C)cc2OC[C@@H]2CNCCO2)cn1,active: 1.48 µM
6,CNC(=O)c1ccc2cc(C3(O)CCn4cncc43)ccc2c1 (stereo not given),inactive
7,Cc1[nH]c2ccc(F)cc2c1-c1nc2c3cccnc3c3ncccc3c2[nH]1,active: 0.679 µM
8,O=C(NCc1cccc(O)c1)Nc1nc(-c2ccncc2)cs1,"inconclusive: 26.3 µM [inhibitor, single point]"
9,O=C(CCc1ccc(O)cc1)c1c(O)cc(O)cc1O,"inconclusive: 29.5 µM [inhibitor, single point]"
10,COc1cc(CCc2cc(NC(=O)c3ccc(N4C[C@@H](C)N[C@@H](C)C4)cc3)n[nH]2)cc(OC)c1,active: 7.42 µM
11,O=C(NOCC(O)CO)c1ccc(F)c(F)c1Nc1ccc(I)cc1F (stereo not given),"inconclusive: 0.118 µM [inhibitor, full curve]"
12,C=CC(=O)N1C[C@H](Nc2ncnc3[nH]ccc23)CC[C@@H]1C,"inconclusive: 26.3 µM [inhibitor, single point]"
13,Ac-PHSCN-NH2,inactive
14,C=CC[N+]1([C@H]2C[C@H]3[C@@H]4CC[C@H]5C[C@H](O)[C@@H](N6CCOCC6)C[C@]5(C)[C@H]4CC[C@]3(C)[C@H]2OC(C)=O)CCCC1,inactive
15,CCOC(=O)C=C[C@H](C[C@@H]1CCNC1=O)NC(=O)[C@@H](CC(=O)[C@@H](NC(=O)c1cc(C)on1)C(C)C)Cc1ccc(F)cc1,inactive
16,CC[C@@H](Oc1cccc(CN(CCCOc2ccc(OC)cc2)c2nc3ccccc3o2)c1)C(=O)O,inactive
17,COc1nccc(-c2c(-c3ccc(F)cc3)ncn2C2CCNCC2)n1,active: 16.6 µM
18,Cn1cc(-c2ccc3nnc(C(F)(F)c4ccc5ncccc5c4)n3n2)cn1,inactive
19,O=C(NCCS(=O)(=O)c1ccc(C(F)(F)F)cn1)c1ccc(Cl)cc1,"inconclusive: 33.2 µM [inhibitor, single point]"
20,CN(C)CCCOc1ccc(-c2ccc3ncc4c(c3c2)n(C2CCOCC2)c(=O)n4C)cn1,"inconclusive: 2.04 µM [inhibitor, partial curve, poor fit]"

row,Molecule,Potency
1,COc1cc(C(=O)NC2CCN(C)CC2)c(F)cc1Nc1ncc2c(n1)N(C1CCCC1)CC(F)(F)C(=O)N2C,active: 0.105 µM
2,COc1cc(C(=O)NC(N)=Nc2ccc(C)c(NC(=O)c3ccc(-c4ccccc4)cc3)c2)cc(OC)c1OC,"inconclusive: 20.9 µM [inhibitor, partial curve]"
3,COc1ccc2c3n(c(=NC(=O)c4cccnc4)nc2c1OC)CCN3,"inconclusive: 0.332 µM [inhibitor, full curve]"
4,COc1ccc2c(c1)c(C1=C(c3c[nH]c4ccccc34)C(=O)NC1=O)cn2CCCN(C)C,"inconclusive: 5.9 µM [inhibitor, partial curve, poor fit]"
5,CCOC(=O)[C@@H](N)CCC(=O)N[C@@H](CSCc1ccccc1)C(=O)N[C@@H](C(=O)OCC)c1ccccc1,"inconclusive: 37.2 µM [inhibitor, single point]"
6,COc1ccc(-c2cc3nccn3c(Nc3ncccc3C(N)=O)n2)cc1OC,active: 6.61 µM
7,O=c1cc(-c2ccc(O)c(O)c2)oc2cc(O)cc(O)c12,"inconclusive: 6.61 µM [inhibitor, partial curve, poor fit]"
8,C#Cc1cccc(Nc2ncnc3cc(OCCOC)c(OCCOC)cc23)c1,"inconclusive: 14.8 µM [inhibitor, partial curve]"
9,C[C@@H]1CCNC(=O)c2cc3ccc(C(=O)Nc4nc5ccccc5n4CCCN(C)C)cc3n21,"inconclusive: 7.42 µM [inhibitor, single point]"
10,COCC(=O)NC/C=C/c1ccc2ncnc(Nc3ccc(Oc4ccc(C)nc4)c(C)c3)c2c1,"inconclusive: 26.3 µM [inhibitor, partial curve, poor fit]"
11,CN(C)CCN(C)C(=O)c1ccc(NC(=O)Nc2ccc(-c3nc(N4CCOCC4)c4ccn(CC(F)(F)F)c4n3)cc2)cc1,"inconclusive: 0.0468 µM [inhibitor, full curve, poor fit]"
12,FC(F)(F)c1ccc(CNc2ccc(Cc3c[nH]c4ncc(Cl)cc34)cn2)cn1,inactive
13,Cc1sc2c(c1C)C(c1ccc(Cl)cc1)=N[C@@H](CC(=O)Nc1ccc(OCCOCCOCCOCCNc3cccc4c3C(=O)N(C3CCC(=O)NC3=O)C4=O)cc1)c1nnc(C)n1-2 (stereo not given in full),active: 0.0209 µM
14,C=CC(=O)Nc1cccc(Nc2nc(Nc3ccc(Oc4ccnc(C(=O)NC)c4)cc3)ncc2F)c1,active: 18.6 µM
15,CCNCCc1ccc(CN(CC)c2cc(OC)ccc2[C@@H]2CCc3cc(O)ccc3C2)cc1,"inconclusive: 11.8 µM [inhibitor, single point]"
16,Cc1cc(O)c(-c2ccc([C@@H](C)CN)cc2)c2c1[nH]c(=O)c1sccc12,"inconclusive: 0.0209 µM [inhibitor, full curve]"
17,O=C(CCCCCCC(=O)Nc1ccc([C@H]2O[C@@H](CSc3nc(-c4ccccc4)c(-c4ccccc4)o3)C[C@@H](c3ccc(CO)cc3)O2)cc1)NO,"inconclusive: 6.79 µM [inhibitor, single point]"
18,CN(C)C[C@@H]1CCn2cc(c3ccccc32)C2=C(C(=O)NC2=O)c2cn(c3ccccc23)CCO1,"inconclusive: 5.25 µM [inhibitor, full curve, poor fit]"
19,COc1cc(OC2CCN(C)CC2)ccc1Nc1ncc2c(n1)n(C1CCCC1)c(=O)n2C,active: 14.8 µM
20,CC(C(=O)O)c1ccc2c(c1)CC(=O)c1ccccc1S2 (stereo not given),inactive
